# The supplement of paper PMC11417369
# This is one part of the list.
# System: PfAP2-HC AP2 domain (GST-tagged)
# Assay: gcPBM binding intensity (ln(normalized median fluorescence intensity)); higher = stronger DNA binding
# Summary of the method: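 Probes on an Agilent 4 × 180k array were primer-extended, double-stranded and 36 bp long, taken from intergenic genomic regions, with negative controls added. GST-tagged P. falciparum DNA-binding domains from E. coli, about 25 μg on average, were applied to the array for 1 h in 1× PBS containing 1% milk, 0.2 mg/ml BSA, 0.5% salmon testes DNA and 0.03% Triton X-100. Binding intensity, obtained after Alexa488 anti-GST antibody detection and a 488 nm scan, is the highest Masliner-normalised natural-log median intensity across replicate spots of either probe orientation.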
row,Sequence,gcPBM binding intensity (ln)
1,ACGTGTGATTATAATTGTACTTTAATGTAAGAATGA [XGTACX_site1109],9.85
2,ATATATATATATATATGTACTTATAATAATATTCAA [XGTACX_site2593],9.79
3,ATTTATATATAAATGTGTACATATATATATATAAAC [XGTACX_site7592],9.72
4,ATTGTAAGTAAACACACACACATATATCTGTATTTA [CACACA_site4542],10.5
5,TACCATGTTCAAATTACACACATATAATGCAATATA [CACACA_site7034],9.77
6,CTGAAATTAACAAAAGTGCATAAAAATAAAAAATAT [GTGCAC_site9652],9.68
7,TCACATTTTGGACACGTGCACATATATTTGATACAT,9.82
8,AAAATTAATTATTACAAAAATGAAAAGACATATTTT [GTGCAC_negctrl_site735],9.54
9,TTTTTTTACAACATTACACACAAATATTCTGGGTTA [CACACA_site3755],9.75
10,AATATTATATTAAAATGTACAAAAATGAATTACTTT [XGTACX_site1473],9.62
11,CAATGCAAGGCTTAAAAAAATGGGCATATTATATAT [GTGCAC_negctrl_site304],9.47
12,AAAAAGGAAATTTACACACACATATAATATACATTA [CACACA_site3296],10.1
13,ATTTACCAGACCATATGTACATACATAAAACACACA [XGTACX_site3788],10.3
14,GGAATTGAAAAATCAGCACACACACTAATACATACA [CACACA_site9059],10.3
15,AATAATTGTTAAAGGTGTACAATACCTACATAAGAA [XGTACX_site4215],9.87
16,AAATGGCAATAATGGACACACAAATGTTGTTATATA [CACACA_site2819],9.84
17,TCATATATCCTTATCACACATATAATAAATTCCCTT [CACACA_site4457],9.65
18,AATATTTCTCATTTTGTGCACTGAAAAATGTAATAT,9.61
19,TTCTTTGCTTTTCAAACACACAAAAGTTATTATAGT [CACACA_site6390],9.8
20,GTTCTACAAGCCACTGCATGCTGATATAGAATAAAT [TGCATGCA_site138],9.52
21,ATATGATTATTATTATATAAATTATAAAGTCTAATA [GTGCAC_negctrl_site586],9.32
22,TATATTAAACTTTGCACACATAATTTAACTACAAAG [CACACA_site3441],9.74

row,Sequence,gcPBM binding intensity (ln)
1,AATCATTTATTGATGGTGCAATATACCATCTAATGA [GTGCAC_site9440],9.41
2,ATATATATATATATATGTACTTAAAAAATATATACA [XGTACX_site8952],9.6
3,AAAAAAAAAAAAAAAAAAAAAAAAAAAATACGAAAG [GTGCAC_negctrl_site729],9.46
4,CTTTTTAATTAATACACACACACACGGATATAAATA [CACACA_site7145],10.4
5,TATTTTTTTTGTGTGTGTCCTCATGTAATACTGCAA [XGTACX_site1380],10.2
6,CATAATACATATAACACACACAATTATACATAAAAT [CACACA_site3233],10.8
7,AAAAAAAAAAAACACACACACACACCCAAATATATA [CACACA_site150],10.6
8,TAAAAATGGAAACACACACACATAAATATATTTTAT [CACACA_site2513],10.4
9,ATTTCTATAAAAATAATCTACATTTTTTTTTTTTTT [CACACA_negctrl_site917],9.23
10,TATATACATATATATATATGTATAGATAGATACATT [CACACA_negctrl_site1511],9.63
11,TAACCACAATTTTAATGTACATATATATTTATATAT [XGTACX_site8968],9.76
12,TTTTGAAAAAATTTTTATAAAAGAATAAAATTATTA [XGTACX_negctrl_site570],9.23
13,AATATTTTACAATACACATGCAAATAATATTCTAAA [TGCATGCA_site618],9.64
14,ATATTATTTATGTATGCATGCGGCGAAATGGGCTTG [TGCATGCA_site28],9.62
15,AATGGGTTACACATATGTACATAAAATATAAAAAAT [XGTACX_site3440],9.81
16,TCTCATTTTCCCTAAAAAAAAAAATAAATAAAAATA [TGCATGCA_negctrl_site580],9.07
17,TTTTTCCATATTGTAGCATGCAGTATATATATCATG [TGCATGCA_site530],9.66
18,CACTAATAGTGGATTACACACATATATATGTATATA [CACACA_site2531],9.75
19,CGCGAAGTAGCATTCACACACAGCAAAATATATATA [CACACA_site3495],9.91
20,ACTTACACATTTATTACACACATAAAGGAAAATTTT [CACACA_site1356],9.79
21,ATATTTAAATGGATCACACATATATATATATATATA [CACACA_site5255],9.55
22,TTAAAAAATAACAAGGTGCAAATAGGTTTATAAAAT,10

row,Sequence,gcPBM binding intensity (ln)
1,TTTTTAACATTTAAATGTACATGTTACAATTTAAAG [XGTACX_site8789],9.42
2,TTTTTATTTTTATACATATAATATATTATGATTAAA [CACACA_negctrl_site214],9.41
3,ACAGCATAATCATGCTGTACATTATTTTCTTAAGTA [XGTACX_site8456],9.37
4,AGAGACTTAGAAAACACACATACATAAGATAATTTA [CACACA_site2377],9.99
5,TGCAAAAAATTCCACACACACACACGCATATAAATA [CACACA_site6696],10.6
6,TAAAATAAAAGTGAAACACACAGTATTTTACAACAT [CACACA_site3811],9.83
7,AAAATAGCTGTATAGAGTACATATAAATAATGTTGT [XGTACX_site5692],9.75
8,CATTTTTCTATATGTGCATGTAAGATAAGAATAATT [TGCATGCA_site107],9.37
9,TCATATAATATTTATATGCACACTTTTCTATATATA [CACACA_site4075],9.91
10,TTTCGTCATTTTGTTTTTAATTCTACAATTTAGTTA [XGTACX_negctrl_site286],9.66
11,TTTTGAAGAAAATTCTTTTTTTTTTTTTTTTGTAAA [CACACA_negctrl_site102],9.03
12,ATATAATGACAAGTATAAGTATCACAAAGAAATAAA [CACACA_negctrl_site1403],9.79
13,CCACTTTTTGAAGACACACACAAAAAAAAAAAAAAA [CACACA_site2551],9.55
14,CAAGCTTTTTCCTTTACACACATTAATTATATATAT [CACACA_site1423],9.96
15,ATAACAATTATTTGTCGACACACGTATATGTTATTT [CACACA_site1766],10.1
16,CAAAATAAAAAATTCACACACATATAAATATAAATA [CACACA_site7065],10.4
17,AAAAAAAAAGGTACTACACACTATTATCAATAGAAA [CACACA_site91],9.79
18,TACTTATTATGAAACACACACCAAAACTACAGAATA [CACACA_site6265],10.5
19,ATATATATATGTATATGTACATATATATACACATAT [XGTACX_site140],9.85
20,TAAATATATTTATATTGTACATTTATGTTGATACCA [XGTACX_site228],9.35
21,TTTTGTGAATTTTAGATTTTTTAATACAAGAATATT [CACACA_negctrl_site606],9.1
22,ATATTTACCACTGTATGTACATATATAAAATATATC [XGTACX_site6373],9.85

row,Sequence,gcPBM binding intensity (ln)
1,TATATATATAATATATGTACTGATATGCTATTTACT [XGTACX_site841],9.78
2,ATTTAATTTATTATGTGTACTTATTTAATTAAATTA [XGTACX_site3171],9.62
3,TTATATATTTATAAATGTACATATAATTTTTTTATA [XGTACX_site4696],9.52
4,CTGATATATAGATGTAGTACATAAAAATGACGAATT [XGTACX_site5612],9.91
5,ATATTTTTATTTAAATCACATCATTTTGTTTATTTG [CACACA_negctrl_site1056],9.8
6,CATATAATTATTGAAAGTACATACAAATAAAAAGAT [XGTACX_site6535],9.82
7,AAAAAAATAAAATGTTCACACATTTCACAATTACTT [CACACA_site4859],9.75
8,TGAGCACAAATACAGGTGCATATAAAATATATGACG,9.85
9,AGAGGCCAGCTTTCTCTTCTAAACATGTACAAAAAT [GTGCAC_negctrl_site98],9.37
10,AATAGTTAAATGTACACACTAACTACATGGAATATA [CACACA_site3262],9.83
11,TATATATAAAACATATGTACATATATATATATATAT [XGTACX_site419],9.63
12,ATATTTTATAATTTTACACACCATATAAAATAATTC [CACACA_site2797],9.64
13,ACATGAAACTATAAACGTACATACATACATATATAT [XGTACX_site5011],9.88
14,AAGTAAAAAAATAGCACACACACAAAAACACCCACA [CACACA_site1291],10.8
15,ATATATATATAGTGCACACATATAAAATATATATAA [CACACA_site2745],10.1
16,TATAATATATATAGGAGTACGTATGTATATTTATAA [XGTACX_site3521],9.83
17,TTTACAGATACTTGCTCACACATATGTATAAAAATA [CACACA_site4928],9.61
18,TGTATGTTTATTTGATGTACGGTCATACATATAAAT [XGTACX_site5176],9.61
19,AAATTCATATGAATTTGTACGGACATAAATATCTTC [XGTACX_site1838],9.66
20,CTATTTTTTGTATAAACATGCATATAGTAGATATGG [TGCATGCA_site670],9.47
21,TTTAATATTTTTTTTTGTACTTATTTGTAGAAATAT [XGTACX_site3046],9.56
22,AGGCTCATTTTTTTTAGTACATCAAAAAAAAAAAAA [TGCATGCA_negctrl_site591],9.1
